Measured values: PubChem BioAssay AID485281 (National Center for Advancing Translational Sciences (NCATS), 2010)
Out of some 350,000 compounds screened, about 260 (0.074%) were called active. Inconclusive results, whose numbers are uncertain, are shown with a selection of clear calls. Calls follow the shape of the dose curve; as a rule, active = well fitted inhibition curve with a large enough effect; inconclusive = small, poorly fitted or top-dose-only effect; inactive = no such curve, though single readings can be large or run the other way. Potencies beside an inconclusive call are fits to weak or partial responses and may not hold up.

Target: Ferritin light chain (Equus caballus) (UniProt P02791)
Assay: qHTS Assay for Identification of Novel General Anesthetics; also: nearly all actives have a fitted effect of over 20% in size
Settings: apoferritin/1-aminoanthracene competitive binding, fluorescence; activity change, negative = displacement: at 77.5 µM (top of the series)
In short: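 In PBS, apoferritin at 10 uM is loaded with 1-AMA from a 50% saturated solution. After 10 min of compound exposure at ambient temperature, reduced 535 nm fluorescence indicates probe displacement.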
% is scaled to controls: 0 for no effect and ±100 for the full control effect; potency is read from the fitted curve at half-maximal effect; tags tell the direction and shape of the fitted curve.

Sequence of UniProt P02791 (P02791 whole entry, looked up): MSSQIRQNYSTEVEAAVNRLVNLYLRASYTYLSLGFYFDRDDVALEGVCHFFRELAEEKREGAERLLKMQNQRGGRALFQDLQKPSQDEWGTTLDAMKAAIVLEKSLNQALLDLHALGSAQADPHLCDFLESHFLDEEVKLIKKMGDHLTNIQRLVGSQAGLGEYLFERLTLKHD

**Q.** How did the Potency turn out when `CCOC(=O)c1c(NC(=O)c2cccs2)sc(C(=O)N(C)C)c1C` was run?
**A.** inconclusive: 39.8 µM [inhibitor, single point]

**Q.** How did the “activity change, negative = displacement” value turn out when `CSc1ccc(CCNC(=O)c2c(C)nn(-c3ccc(F)cc3)c2-n2cccc2)cc1` was run?
**A.** inactive: 26.1%

**Q.** How did the Potency turn out when `COC(=O)c1ccncc1C(=O)Nc1ccc(Oc2ncc(C(F)(F)F)cc2Cl)cc1` was run?
**A.** inconclusive: 25.1 µM [inhibitor, partial curve]

**Q.** For `CC[N+](CC)(CC)CCOc1cccc(OCC[N+](CC)(CC)CC)c1OCC[N+](CC)(CC)CC`, which Potency is on record?
**A.** inactive

**Q.** `Cc1ccc(C(C)NC(=O)C2CCCC2)cc1C` (centres undefined) was tested. Which Potency did it give?
**A.** inconclusive: 31.6 µM [inhibitor, single point]

**Q.** For `CCCCC(=O)N/N=C/c1ccc(Sc2cccc3cccnc23)o1`, which Potency is on record?
**A.** inconclusive: 8.91 µM [inhibitor, partial curve]

**Q.** Which Potency does the source give for `CCOc1ccc(CCNC(=O)Cn2nc(C)c3c(C)n(-c4ccccc4)nc3c2=O)cc1` here?
**A.** inconclusive: 25.1 µM [inhibitor, partial curve]

**Q.** For `Cn1c(SCC(=O)N/N=C/c2ccco2)nc2ccccc21`, which Potency is on record?
**A.** inconclusive: 35.5 µM [inhibitor, partial curve]

**Q.** How did the Potency turn out when `CCCCCOc1ccc(OC(=O)c2ccncc2)cc1` was run?
**A.** inconclusive: 31.6 µM [inhibitor, partial curve]

**Q.** `COc1ccc(OCC(=O)Nc2ccc3c(c2)nc(CN2CCCC2)n3C)cc1` was tested. Which “activity change, negative = displacement” value did it give?
**A.** inactive: -12.9%

**Q.** With `Cc1ccc(-c2nn(CC(=O)NC(C)c3ccccc3)c(=O)c3ccccc23)cc1` (centres undefined) as the compound, how does the Potency read?
**A.** inconclusive: 3.55 µM [inhibitor, full curve, poor fit]

**Q.** How did the Potency turn out when `COc1ccc(CN2CCNC(=O)C2CC(=O)NC2CCCCCCC2)cc1OC` (centres undefined) was run?
**A.** inconclusive: 35.5 µM [inhibitor, single point]

**Q.** For `CC(C)(C)c1ccc(NC(=S)NCc2cccs2)cc1`, which “activity change, negative = displacement” value is on record?
**A.** inactive: 134%

**Q.** For `Cc1ccccc1NC(=O)Cc1nc(CSc2nnc(C3CCCCC3)n2N)cs1`, which Potency is on record?
**A.** inconclusive: 15.8 µM [inhibitor, partial curve, poor fit]

**Q.** `CC1CCCC(C)N1S(=O)(=O)c1ccc(NC(=O)CNCC2CCCO2)cc1` (centres undefined) was tested. Which Potency did it give?
**A.** inconclusive: 56.2 µM [inhibitor, partial curve]

**Q.** For `Cc1ccc(CNc2nc(C)cs2)cc1`, which Potency is on record?
**A.** inconclusive: 50.1 µM [inhibitor, single point]

**Q.** `CCOc1cc(C2CC(=O)Nc3cc(C)c(C)cc32)ccc1O` (centres undefined) was tested. Which Potency did it give?
**A.** inconclusive: 39.8 µM [inhibitor, single point]

**Q.** For `COc1ccc(Cn2ccnc2SCC(=O)Nc2ccccc2F)cc1`, which Potency is on record?
**A.** inconclusive: 15.8 µM [inhibitor, partial curve]

**Q.** With `Cc1ccc(-n2nc(CO)c(C(=O)NCc3cccnc3)n2)cc1C` as the compound, how does the “activity change, negative = displacement” value read?
**A.** inactive: -10.4%

**Q.** Which Potency does the source give for `CSc1ccc(C2C(C#N)=C(N)Oc3cc4c(cc32)OCO4)cc1` (centres undefined) here?
**A.** inconclusive: 31.6 µM [inhibitor, partial curve]

**Q.** How did the “activity change, negative = displacement” value turn out when `O=C(CN(CC1CCCO1)C(=O)CNS(=O)(=O)c1ccccc1)NCc1ccc(F)cc1` (centres undefined) was run?
**A.** inactive: -4.82%

**Q.** Which “activity change, negative = displacement” value does the source give for `O=C(CCCn1c(=O)c2ccccc2n(Cc2ccccc2)c1=O)NCc1ccco1` here?
**A.** inactive: -0.564%

**Q.** Which Potency does the source give for `COC(=O)c1ccc(NC(=O)CSc2nccn2CCc2ccccc2)cc1` here?
**A.** inconclusive: 11.2 µM [inhibitor, partial curve]

**Q.** With `CC(=O)N1CCN(c2ccc(NC(=O)c3ccc(Cl)cc3)cc2)CC1` as the compound, how does the “activity change, negative = displacement” value read?
**A.** inactive: -4.08%

**Q.** With `COc1ccc(OC)c(C2CC(=O)Nc3c2c(=O)n(C)c2ncnn32)c1` (centres undefined) as the compound, how does the “activity change, negative = displacement” value read?
**A.** inactive: 0.569%

**Q.** With `COCC1CCCCN1C(=O)c1ccc2oc(CCCc3ccccc3)nc2c1` (centres undefined) as the compound, how does the Potency read?
**A.** inconclusive: 31.6 µM [inhibitor, partial curve]

**Q.** Which Potency does the source give for `CC1C=CCC2C(=O)N(c3ccc(OC(=O)c4ccco4)cc3)C(=O)C12` (centres undefined) here?
**A.** inconclusive: 31.6 µM [inhibitor, partial curve]

**Q.** For `Clc1ccc(-c2c[n+](Cc3ccc(Cl)cc3Cl)c3n2CCCCC3)cc1`, which “activity change, negative = displacement” value is on record?
**A.** inactive: 0.292%

**Q.** How did the Potency turn out when `COc1ccccc1NC(=O)CSc1nnc2c(n1)[nH]c1ccccc12` was run?
**A.** inconclusive: 3.98 µM [inhibitor, full curve]

**Q.** With `OCCCNc1nccc(-c2cc(Nc3cccc(Cl)c3)ncn2)n1` as the compound, how does the Potency read?
**A.** inconclusive: 35.5 µM [inhibitor, single point]

**Q.** With `CC(COS(N)(=O)=O)Cc1ccc(C(F)(F)F)cc1` (centres undefined) as the compound, how does the Potency read?
**A.** inconclusive: 28.2 µM [inhibitor, partial curve]

**Q.** For `COc1cccc(NC(=O)CSc2nnc(-c3ccc(C)cc3)o2)c1`, which “activity change, negative = displacement” value is on record?
**A.** inactive: 2.42%

**Q.** `O=C(NC1CC1)c1sccc1-n1cccc1` was tested. Which Potency did it give?
**A.** inconclusive: 50.1 µM [inhibitor, single point]

**Q.** `CCOc1ccc(C(=O)SC2=NCCS2)cc1` was tested. Which Potency did it give?
**A.** inconclusive: 28.2 µM [inhibitor, single point]

**Q.** For `CCCCOc1ccc(CSC(=N)N)cc1Cl`, which Potency is on record?
**A.** inconclusive: 25.1 µM [inhibitor, partial curve]

**Q.** For `CSc1ccc(/C=N/NC(=O)CNc2ccc3ccccc3c2)cc1`, which Potency is on record?
**A.** inconclusive: 20 µM [inhibitor, partial curve]

**Q.** `CC(C)CCNC(=O)CCCn1c(=O)c2cccn2c2ccccc21` was tested. Which Potency did it give?
**A.** inconclusive: 25.1 µM [inhibitor, partial curve, poor fit]

**Q.** How did the Potency turn out when `CCc1cc(=O)oc2cc(C)cc(OCC(=O)NCCc3c[nH]c4ccccc34)c12` was run?
**A.** inconclusive: 12.6 µM [inhibitor, partial curve]

**Q.** For `COc1cccc(NC(=O)c2cc3ccccc3o/c2=N\O)c1`, which Potency is on record?
**A.** inconclusive: 28.2 µM [inhibitor, single point]

**Q.** With `CCN(CC)CCCCn1c(-c2ccccc2)nc2c(N(CCOC)CCOC)nc(C)nc21` as the compound, how does the “activity change, negative = displacement” value read?
**A.** inactive: -9.81%

**Q.** With `O=C(NCCCN1CCN(c2cccc(Cl)c2)CC1)C1(S(=O)(=O)c2ccc(Cl)cc2)CC1` as the compound, how does the Potency read?
**A.** inconclusive: 39.8 µM [inhibitor, single point]

**Q.** How did the Potency turn out when `CCOC(=O)c1cccc(NC(=S)NCc2ccc(C)cc2)c1` was run?
**A.** inconclusive: 31.6 µM [inhibitor, partial curve]

**Q.** How did the Potency turn out when `CCOC(=O)c1c(NC(=O)CN2CCCCC2)sc2c1CCCC2O` (centres undefined) was run?
**A.** inconclusive: 8.91 µM [inhibitor, partial curve]

**Q.** Which Potency does the source give for `OCCCCNCc1ccc(OCc2ccccc2)cc1` here?
**A.** inconclusive: 28.2 µM [inhibitor, partial curve]
